{"source": "the supplement of paper PMC3334620", "note": "In all, about 33,000 sequences were measured (“E-score (-0.5 to 0.5)”: median about -0.036, highest 2% from about 0.37 on). This is one part of the list.", "data": [{"target": "T1, Yer064c (UniProt P40041)", "T1 sequence": "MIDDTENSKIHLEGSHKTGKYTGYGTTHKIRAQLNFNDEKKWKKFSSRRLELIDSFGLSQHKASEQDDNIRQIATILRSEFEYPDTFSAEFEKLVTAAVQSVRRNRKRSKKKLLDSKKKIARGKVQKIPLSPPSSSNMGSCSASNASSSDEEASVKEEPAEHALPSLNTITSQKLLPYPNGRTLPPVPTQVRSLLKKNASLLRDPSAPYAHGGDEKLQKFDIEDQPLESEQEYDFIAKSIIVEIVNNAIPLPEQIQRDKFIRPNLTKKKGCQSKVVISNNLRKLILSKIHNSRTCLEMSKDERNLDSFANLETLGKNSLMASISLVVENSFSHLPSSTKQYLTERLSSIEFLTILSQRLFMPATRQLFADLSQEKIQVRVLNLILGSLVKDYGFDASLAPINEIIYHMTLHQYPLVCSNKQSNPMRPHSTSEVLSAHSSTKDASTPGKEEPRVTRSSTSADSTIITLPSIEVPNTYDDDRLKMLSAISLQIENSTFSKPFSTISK", "test": "PBM E-score (8-mer binding enrichment) (E-score (-0.5 to 0.5)); higher = stronger / more preferred TF binding; most listed sequences are background and not binding sites", "conditions": "protein concentration: 200 nM; construct: GST-full length", "outline": "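Masliner-normalised scans of fluorescent anti-GST signal were the basis for scoring. That signal came from GST-tagged yeast transcription factors applied at about 100-200 nM to double-stranded universal all-10-mer Agilent arrays on fresh or once-stripped slides. Each ungapped eight-base word, pooled with its reverse complement, received an E-score from the Universal PBM Analysis Suite.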", "values": [{"sequence": "TACTCAAA", "PBM E-score": 0.201}, {"sequence": "ACTTTGCA", "PBM E-score": 0.106}, {"sequence": "ACCGATCA", "PBM E-score": 0.133}, {"sequence": "ATTGGTAC", "PBM E-score": -0.13}, {"sequence": "TACATGCA", "PBM E-score": -0.169}, {"sequence": "AACGAATC", "PBM E-score": 0.266}, {"sequence": "AGTCCCAT", "PBM E-score": 0.249}, {"sequence": "TCTGTCCA", "PBM E-score": -0.0581}, {"sequence": "GAACCCTA", "PBM E-score": -0.0228}, {"sequence": "AGAGTTTC", "PBM E-score": -0.0636}, {"sequence": "CAGGAGTA", "PBM E-score": 0.0894}, {"sequence": "CGGATTTC", "PBM E-score": -0.156}, {"sequence": "AAATCTCG", "PBM E-score": 0.00944}, {"sequence": "TCAGGGGA", "PBM E-score": 0.0738}, {"sequence": "CCACCTTC", "PBM E-score": -0.153}, {"sequence": "CCCCGCAA", "PBM E-score": -0.218}, {"sequence": "CCTCTCAA", "PBM E-score": -0.103}, {"sequence": "CAGTGAGG", "PBM E-score": -0.0837}, {"sequence": "GGTTCGAA", "PBM E-score": 0.164}, {"sequence": "ACAAGCAG", "PBM E-score": -0.156}, {"sequence": "CACTTGCG", "PBM E-score": -0.0335}, {"sequence": "ATGTGCGC", "PBM E-score": -0.168}, {"sequence": "CGCTCGGC", "PBM E-score": -0.203}, {"sequence": "CCCGACCA", "PBM E-score": -0.136}, {"sequence": "AGGCGTAG", "PBM E-score": -0.237}, {"sequence": "CGGCTTCA", "PBM E-score": -0.033}, {"sequence": "CAGTGGAG", "PBM E-score": 0.0756}, {"sequence": "GTCCGCAC", "PBM E-score": 0.0458}, {"sequence": "GATGAGCA", "PBM E-score": 0.189}, {"sequence": "CAATTGCA", "PBM E-score": -0.187}, {"sequence": "ACGGACGT", "PBM E-score": -0.244}, {"sequence": "AATAGAAA", "PBM E-score": -0.119}, {"sequence": "CACAAAGC", "PBM E-score": -0.00986}, {"sequence": "GTTGATTA", "PBM E-score": 0.381}, {"sequence": "CAGCACAA", "PBM E-score": 0.0362}, {"sequence": "ACGGGGCT", "PBM E-score": -0.209}, {"sequence": "CTAATCAG", "PBM E-score": 0.286}, {"sequence": "TATCTACA", "PBM E-score": 0.093}, {"sequence": "CCGCCATC", "PBM E-score": -0.0589}, {"sequence": "GAGGTAAC", "PBM E-score": -0.0374}, {"sequence": "ACAAGAAC", "PBM E-score": 0.0777}, {"sequence": "CGCGGCCA", "PBM E-score": -0.182}, {"sequence": "AATGGCTG", "PBM E-score": -0.057}, {"sequence": "AGAACTTG", "PBM E-score": 0.0785}, {"sequence": "CATCCTCC", "PBM E-score": -0.162}, {"sequence": "GTAGCTTA", "PBM E-score": -0.0474}, {"sequence": "ATCATTAC", "PBM E-score": 0.219}, {"sequence": "ATTACTCG", "PBM E-score": 0.202}, {"sequence": "ATACTGTG", "PBM E-score": -0.0156}, {"sequence": "ATGTGAGA", "PBM E-score": 0.151}, {"sequence": "CGTGGCTC", "PBM E-score": 0.131}, {"sequence": "CAACCCTA", "PBM E-score": -0.177}, {"sequence": "ATAGTCGC", "PBM E-score": 0.389}, {"sequence": "CCTCGCCC", "PBM E-score": -0.0406}, {"sequence": "CCGCATTC", "PBM E-score": -0.08}, {"sequence": "ACCACTCA", "PBM E-score": 0.127}, {"sequence": "AAGCCAGC", "PBM E-score": -0.181}, {"sequence": "CCGGCCTA", "PBM E-score": -0.0915}, {"sequence": "CTTCTATC", "PBM E-score": -0.185}, {"sequence": "GCACATGC", "PBM E-score": -0.15}, {"sequence": "GATTAGAC", "PBM E-score": 0.201}, {"sequence": "AGCGGACC", "PBM E-score": -0.111}, {"sequence": "CCGGATTA", "PBM E-score": -0.0124}, {"sequence": "GGTGCTAC", "PBM E-score": -0.273}, {"sequence": "CGTACATC", "PBM E-score": -0.162}, {"sequence": "ATGAGGGG", "PBM E-score": -0.125}, {"sequence": "ATACTCAC", "PBM E-score": 0.312}, {"sequence": "GAGTAAGC", "PBM E-score": -0.0288}, {"sequence": "CATAAACG", "PBM E-score": -0.0361}, {"sequence": "ACACATCG", "PBM E-score": 0.158}, {"sequence": "ATTGCTTA", "PBM E-score": 0.0262}, {"sequence": "ACCAGAAT", "PBM E-score": -0.0478}, {"sequence": "CTGTCGCA", "PBM E-score": -0.172}, {"sequence": "ATAACGGC", "PBM E-score": -0.188}, {"sequence": "CAGCTTAG", "PBM E-score": -0.175}, {"sequence": "ATTTGCAC", "PBM E-score": -0.204}, {"sequence": "CCACAGCG", "PBM E-score": -0.0572}, {"sequence": "GCCCGCCA", "PBM E-score": -0.295}, {"sequence": "GGCGTCAA", "PBM E-score": -0.096}, {"sequence": "ATTTTGTG", "PBM E-score": 0.129}, {"sequence": "ACCCGCAT", "PBM E-score": 0.126}, {"sequence": "CCTTGATC", "PBM E-score": 0.00176}, {"sequence": "CGCCCCAG", "PBM E-score": -0.056}, {"sequence": "ACATGAAG", "PBM E-score": -0.0539}, {"sequence": "CACAATGG", "PBM E-score": 0.0125}, {"sequence": "CATCATTA", "PBM E-score": 0.161}, {"sequence": "AGCGGCGG", "PBM E-score": -0.0218}, {"sequence": "AGCATATA", "PBM E-score": 0.0717}, {"sequence": "GAGCATGC", "PBM E-score": -0.063}, {"sequence": "TTATATAA", "PBM E-score": 0.303}, {"sequence": "CTCTACAA", "PBM E-score": 0.032}, {"sequence": "GGGTCAGA", "PBM E-score": 0.00219}, {"sequence": "AGATACAA", "PBM E-score": 0.0771}, {"sequence": "CACCGAGA", "PBM E-score": -0.0636}, {"sequence": "ACAGCGGA", "PBM E-score": -0.121}, {"sequence": "AAGCGGGA", "PBM E-score": -0.239}, {"sequence": "CCAACTGC", "PBM E-score": 0.00331}, {"sequence": "AACCGCAC", "PBM E-score": -0.0658}, {"sequence": "AGGGAATA", "PBM E-score": -0.175}, {"sequence": "TATATATA", "PBM E-score": 0.147}, {"sequence": "ATGCATGG", "PBM E-score": -0.0397}, {"sequence": "AGACCTCC", "PBM E-score": -0.138}, {"sequence": "CAAGCATC", "PBM E-score": -0.337}, {"sequence": "ATCTGGTA", "PBM E-score": -0.17}, {"sequence": "GTAAGTTA", "PBM E-score": 0.0864}, {"sequence": "ACGTACGC", "PBM E-score": -0.124}, {"sequence": "CGTTATTA", "PBM E-score": 0.00867}, {"sequence": "ACAAGGAC", "PBM E-score": 0.2}, {"sequence": "CTCGTCTC", "PBM E-score": -0.0892}, {"sequence": "CTCTTCAG", "PBM E-score": -0.172}]}]}
